This passage reports binding results from article PMC11186355.

The chains behind the UniProt entries cited, without tags or fusion partners.
UniProt Q9H0U4: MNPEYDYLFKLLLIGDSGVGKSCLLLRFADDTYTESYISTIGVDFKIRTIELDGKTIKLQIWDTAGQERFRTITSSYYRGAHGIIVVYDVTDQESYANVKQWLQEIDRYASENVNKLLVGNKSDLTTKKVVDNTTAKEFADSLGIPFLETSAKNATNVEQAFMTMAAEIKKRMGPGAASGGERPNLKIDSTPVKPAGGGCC
UniProt Q15437: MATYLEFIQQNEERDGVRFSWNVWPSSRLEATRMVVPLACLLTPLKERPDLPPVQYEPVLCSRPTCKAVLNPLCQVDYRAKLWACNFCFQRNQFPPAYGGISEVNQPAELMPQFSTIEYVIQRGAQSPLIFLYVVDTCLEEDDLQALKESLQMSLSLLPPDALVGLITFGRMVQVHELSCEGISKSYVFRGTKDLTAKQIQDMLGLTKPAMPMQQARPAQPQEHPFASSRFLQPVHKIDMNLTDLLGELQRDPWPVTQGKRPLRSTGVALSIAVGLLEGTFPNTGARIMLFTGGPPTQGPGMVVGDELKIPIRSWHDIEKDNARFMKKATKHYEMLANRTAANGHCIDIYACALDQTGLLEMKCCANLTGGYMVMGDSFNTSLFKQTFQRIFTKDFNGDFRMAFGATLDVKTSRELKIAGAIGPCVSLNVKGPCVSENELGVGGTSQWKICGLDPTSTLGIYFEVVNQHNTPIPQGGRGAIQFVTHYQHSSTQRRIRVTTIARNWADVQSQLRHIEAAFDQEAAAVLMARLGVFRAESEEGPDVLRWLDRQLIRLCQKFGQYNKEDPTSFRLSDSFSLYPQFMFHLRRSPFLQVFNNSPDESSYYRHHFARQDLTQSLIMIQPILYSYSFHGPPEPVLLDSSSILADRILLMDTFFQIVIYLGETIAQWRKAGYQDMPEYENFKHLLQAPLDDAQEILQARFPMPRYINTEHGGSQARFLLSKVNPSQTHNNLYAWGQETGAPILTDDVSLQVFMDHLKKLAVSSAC
UniProt Q9Y2I6: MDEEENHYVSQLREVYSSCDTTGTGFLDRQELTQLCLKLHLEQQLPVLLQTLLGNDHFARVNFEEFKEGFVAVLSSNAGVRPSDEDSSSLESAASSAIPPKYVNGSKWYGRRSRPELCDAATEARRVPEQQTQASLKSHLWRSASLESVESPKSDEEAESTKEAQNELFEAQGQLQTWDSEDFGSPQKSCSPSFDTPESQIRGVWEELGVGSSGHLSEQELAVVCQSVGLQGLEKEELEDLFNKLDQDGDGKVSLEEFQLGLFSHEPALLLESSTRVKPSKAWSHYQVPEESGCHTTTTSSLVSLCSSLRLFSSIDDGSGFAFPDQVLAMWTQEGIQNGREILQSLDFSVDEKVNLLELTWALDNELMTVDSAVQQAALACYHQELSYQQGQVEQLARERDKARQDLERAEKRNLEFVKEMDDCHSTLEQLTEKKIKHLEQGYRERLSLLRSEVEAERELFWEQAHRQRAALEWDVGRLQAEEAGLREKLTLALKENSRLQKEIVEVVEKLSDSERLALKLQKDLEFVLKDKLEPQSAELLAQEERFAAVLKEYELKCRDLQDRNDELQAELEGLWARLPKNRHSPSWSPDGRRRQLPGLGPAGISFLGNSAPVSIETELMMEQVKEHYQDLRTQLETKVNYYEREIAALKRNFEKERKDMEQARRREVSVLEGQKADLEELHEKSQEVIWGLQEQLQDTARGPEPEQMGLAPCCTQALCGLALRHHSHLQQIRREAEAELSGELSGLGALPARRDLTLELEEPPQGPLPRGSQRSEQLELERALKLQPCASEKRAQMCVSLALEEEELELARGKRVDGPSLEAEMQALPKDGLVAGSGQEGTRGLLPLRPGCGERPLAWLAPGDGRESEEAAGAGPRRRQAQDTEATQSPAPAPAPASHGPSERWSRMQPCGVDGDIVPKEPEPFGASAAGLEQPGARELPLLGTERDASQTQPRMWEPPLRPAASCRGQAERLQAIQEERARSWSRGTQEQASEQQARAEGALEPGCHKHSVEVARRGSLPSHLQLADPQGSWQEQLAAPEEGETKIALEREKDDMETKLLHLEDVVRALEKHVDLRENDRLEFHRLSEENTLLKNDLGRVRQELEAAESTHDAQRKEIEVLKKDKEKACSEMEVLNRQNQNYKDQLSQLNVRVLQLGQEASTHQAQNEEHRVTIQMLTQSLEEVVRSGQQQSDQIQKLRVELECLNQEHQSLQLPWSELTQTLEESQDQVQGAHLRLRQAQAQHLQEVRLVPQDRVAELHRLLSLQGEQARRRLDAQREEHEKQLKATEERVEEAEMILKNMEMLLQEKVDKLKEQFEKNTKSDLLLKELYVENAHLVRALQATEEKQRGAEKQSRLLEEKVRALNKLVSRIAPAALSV
UniProt Q86WV6: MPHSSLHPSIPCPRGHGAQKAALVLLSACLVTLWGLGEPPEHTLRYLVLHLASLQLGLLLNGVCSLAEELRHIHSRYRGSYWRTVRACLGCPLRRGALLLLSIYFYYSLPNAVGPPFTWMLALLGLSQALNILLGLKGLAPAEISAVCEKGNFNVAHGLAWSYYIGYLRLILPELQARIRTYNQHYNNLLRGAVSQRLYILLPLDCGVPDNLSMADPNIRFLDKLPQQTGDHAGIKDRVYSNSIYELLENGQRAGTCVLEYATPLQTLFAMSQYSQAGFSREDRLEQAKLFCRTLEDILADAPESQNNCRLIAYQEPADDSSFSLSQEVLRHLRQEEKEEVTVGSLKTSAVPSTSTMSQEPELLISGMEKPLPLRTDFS
UniProt P35222: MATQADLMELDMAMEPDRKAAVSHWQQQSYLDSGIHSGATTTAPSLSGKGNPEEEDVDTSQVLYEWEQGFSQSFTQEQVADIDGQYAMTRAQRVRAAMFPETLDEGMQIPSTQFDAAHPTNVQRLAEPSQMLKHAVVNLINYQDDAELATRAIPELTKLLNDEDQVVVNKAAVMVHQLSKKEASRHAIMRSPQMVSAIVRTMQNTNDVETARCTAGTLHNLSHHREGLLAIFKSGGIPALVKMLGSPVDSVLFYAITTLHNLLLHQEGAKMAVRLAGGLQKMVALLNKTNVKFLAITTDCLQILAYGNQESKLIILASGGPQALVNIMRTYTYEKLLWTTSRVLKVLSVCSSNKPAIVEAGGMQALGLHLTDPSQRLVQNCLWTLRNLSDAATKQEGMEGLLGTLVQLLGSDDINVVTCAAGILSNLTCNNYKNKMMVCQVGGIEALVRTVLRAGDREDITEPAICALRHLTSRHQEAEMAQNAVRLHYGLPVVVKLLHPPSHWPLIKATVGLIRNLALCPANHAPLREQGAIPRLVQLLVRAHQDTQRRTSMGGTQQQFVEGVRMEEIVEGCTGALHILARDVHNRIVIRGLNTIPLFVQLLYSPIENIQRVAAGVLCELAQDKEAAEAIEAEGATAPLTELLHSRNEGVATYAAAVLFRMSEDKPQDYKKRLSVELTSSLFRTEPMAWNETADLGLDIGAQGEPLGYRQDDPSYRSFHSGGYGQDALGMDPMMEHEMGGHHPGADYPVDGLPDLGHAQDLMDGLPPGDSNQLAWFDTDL

These are yes or no findings as the source states them, for the method shown. For some of these results: In cells and extracts the contact can be indirect. Some entries that bind do so weakly or less than the wild type. For some of these results: Sequences can lack the tags named with a protein.

Test [1] addresses T1, SEC31A (human (endogenous in HeLa)) (UniProt O94979).
T1 sequence: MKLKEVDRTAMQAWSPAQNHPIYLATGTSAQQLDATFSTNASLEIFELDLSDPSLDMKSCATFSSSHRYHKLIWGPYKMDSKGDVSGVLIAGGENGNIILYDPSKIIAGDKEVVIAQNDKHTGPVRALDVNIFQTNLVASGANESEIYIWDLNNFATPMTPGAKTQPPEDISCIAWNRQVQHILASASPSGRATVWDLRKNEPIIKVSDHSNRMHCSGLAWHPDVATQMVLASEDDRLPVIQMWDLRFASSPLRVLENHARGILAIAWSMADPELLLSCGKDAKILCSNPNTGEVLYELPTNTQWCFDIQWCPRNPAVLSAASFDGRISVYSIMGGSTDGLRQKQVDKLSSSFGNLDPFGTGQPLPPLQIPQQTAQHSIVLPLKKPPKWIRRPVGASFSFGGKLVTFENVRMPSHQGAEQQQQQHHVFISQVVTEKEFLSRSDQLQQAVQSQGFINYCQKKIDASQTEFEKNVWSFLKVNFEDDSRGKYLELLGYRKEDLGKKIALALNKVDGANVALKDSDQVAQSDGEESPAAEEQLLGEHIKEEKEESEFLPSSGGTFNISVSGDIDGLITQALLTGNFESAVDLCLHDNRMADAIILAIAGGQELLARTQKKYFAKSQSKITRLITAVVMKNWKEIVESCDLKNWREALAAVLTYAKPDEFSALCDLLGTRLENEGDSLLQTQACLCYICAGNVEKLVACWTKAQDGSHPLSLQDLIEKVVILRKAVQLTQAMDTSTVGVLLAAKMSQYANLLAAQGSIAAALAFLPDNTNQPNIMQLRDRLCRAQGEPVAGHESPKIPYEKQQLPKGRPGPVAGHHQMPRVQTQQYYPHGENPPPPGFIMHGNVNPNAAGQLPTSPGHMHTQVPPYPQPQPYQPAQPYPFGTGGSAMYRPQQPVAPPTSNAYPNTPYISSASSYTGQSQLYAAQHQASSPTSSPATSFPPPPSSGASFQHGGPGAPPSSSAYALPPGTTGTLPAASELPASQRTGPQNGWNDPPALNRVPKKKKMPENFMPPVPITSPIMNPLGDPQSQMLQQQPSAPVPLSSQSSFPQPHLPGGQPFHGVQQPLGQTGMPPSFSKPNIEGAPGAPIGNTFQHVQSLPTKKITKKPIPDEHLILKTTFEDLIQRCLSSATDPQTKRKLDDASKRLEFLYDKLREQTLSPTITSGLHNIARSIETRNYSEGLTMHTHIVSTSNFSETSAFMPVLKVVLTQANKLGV
Description: co-IP; endogenous proteins in HeLa cell lysate, 1% NP-40 buffer, Protein A/G magnetic beads with ~2 μg antibody or IgG, 4°C overnight, immunoblotting. Background: A western blot detects proteins with antibodies after separation by electrophoresis.

Another test concerns the target Rab1B-GST (UniProt Q9H0U4). Description: pull-down; GST fusion proteins on glutathione magnetic agarose beads mixed with 1 mg Nlp-6*His for 6 hours at 4°C, washed seven times with 1% NP-40 buffer, immunoblotting; both purified.
A further test has as its target T2, SEC13-GST (UniProt P55735).
T2 sequence: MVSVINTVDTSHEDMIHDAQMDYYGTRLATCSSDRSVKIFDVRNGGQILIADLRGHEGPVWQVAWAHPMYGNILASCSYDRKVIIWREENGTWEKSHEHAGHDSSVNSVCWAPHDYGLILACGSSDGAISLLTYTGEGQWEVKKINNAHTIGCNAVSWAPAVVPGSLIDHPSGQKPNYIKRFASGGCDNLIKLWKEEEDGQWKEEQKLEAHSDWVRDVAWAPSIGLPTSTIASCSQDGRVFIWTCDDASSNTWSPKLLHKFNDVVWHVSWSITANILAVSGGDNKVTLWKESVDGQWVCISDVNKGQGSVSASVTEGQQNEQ
The description is as above.

Another test deals with SEC23B-GST (UniProt Q15437). The test is described as above.
Another test concerns the target T3, SEC24A-GST (UniProt O95486).
T3 sequence: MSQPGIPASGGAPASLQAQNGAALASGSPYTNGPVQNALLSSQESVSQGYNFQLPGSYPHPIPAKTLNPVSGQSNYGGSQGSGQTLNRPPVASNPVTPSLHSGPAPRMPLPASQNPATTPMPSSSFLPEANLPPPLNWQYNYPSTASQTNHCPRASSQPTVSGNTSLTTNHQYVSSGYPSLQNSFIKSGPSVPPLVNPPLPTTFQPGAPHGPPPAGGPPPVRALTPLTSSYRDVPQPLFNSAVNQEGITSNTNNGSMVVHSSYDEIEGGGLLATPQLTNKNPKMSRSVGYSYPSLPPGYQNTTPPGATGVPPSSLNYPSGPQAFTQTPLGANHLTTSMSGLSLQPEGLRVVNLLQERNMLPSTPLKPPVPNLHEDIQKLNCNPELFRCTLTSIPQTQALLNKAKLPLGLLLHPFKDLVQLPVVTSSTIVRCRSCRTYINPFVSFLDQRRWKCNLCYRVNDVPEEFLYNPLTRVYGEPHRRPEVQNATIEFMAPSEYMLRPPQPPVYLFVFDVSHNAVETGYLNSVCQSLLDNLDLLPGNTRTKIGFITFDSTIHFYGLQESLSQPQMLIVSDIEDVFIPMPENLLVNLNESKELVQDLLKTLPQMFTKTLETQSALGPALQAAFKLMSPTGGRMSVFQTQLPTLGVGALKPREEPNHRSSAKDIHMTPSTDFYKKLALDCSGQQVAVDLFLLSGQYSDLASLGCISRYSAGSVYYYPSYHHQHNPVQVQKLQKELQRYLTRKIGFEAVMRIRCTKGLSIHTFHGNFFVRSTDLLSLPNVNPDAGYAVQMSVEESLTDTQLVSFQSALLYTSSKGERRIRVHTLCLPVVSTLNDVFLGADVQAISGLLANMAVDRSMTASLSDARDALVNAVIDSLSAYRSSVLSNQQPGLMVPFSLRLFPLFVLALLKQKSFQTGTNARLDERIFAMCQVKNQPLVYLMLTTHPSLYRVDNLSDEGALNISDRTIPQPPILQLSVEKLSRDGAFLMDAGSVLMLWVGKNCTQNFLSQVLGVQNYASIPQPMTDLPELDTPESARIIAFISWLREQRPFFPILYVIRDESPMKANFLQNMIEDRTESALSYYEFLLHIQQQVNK
Described as above.

The target in another test is T4, SEC31A-GST (UniProt O94979).
T4 sequence: T1 sequence
The test is described as above.

Test [2] concerns the target Ninein-like protein (Nlp) (human (endogenous in HeLa)) (UniProt Q9Y2I6). Kind of test: co-IP; endogenous proteins in HeLa cell lysate, 1% NP-40 buffer, Protein A/G magnetic beads with ~2 μg antibody or IgG, 4°C overnight, immunoblotting.
A further test deals with Nlp-6*His (UniProt Q9Y2I6). Description: SPR; Biacore 8K, 6000 RU of Nlp-6*His immobilised on a CM5 chip by amine coupling, PBS running buffer, 25 °C; gradient concentrations of SEC31A or Rab1B injected; both purified. A general note: In SPR one partner is held on a chip, and binding of the other changes the refractive index at the surface.

Regarding “Ninein-like protein (Nlp) (from UniProt Q9Y2I6 1-1382)”, in test [1], the binding result is listed as “binds”.

Nlp-6*His (from UniProt Q9Y2I6 1-1382): the binding result with Rab1B-GST is on record as “binds”; in the test with SEC13-GST, “no binding (tested: 1 mg Nlp-6*His fusion protein)”; in the test with SEC23B-GST, “no binding (tested: 1 mg Nlp-6*His fusion protein)”; with SEC24A-GST, “no binding (tested: 1 mg Nlp-6*His fusion protein)”; with SEC31A-GST, “binds”. As to Rab1B (from UniProt Q9H0U4 1-201), the binding result in test [2] is on record as “binds”. For the substance “Rab1B purified protein (GST removed by Thrombin) (from UniProt Q9H0U4 1-201)”, the binding entry in the test with Nlp-6*His is recorded as “binds”. As to STING (from UniProt Q86WV6 1-379), in test [2], the binding entry was “binds”. For the substance β-Catenin (from UniProt P35222 1-781), the binding result in test [2] was “binds”.
